Data as given in PubChem BioAssay AID1963576 (National Center for Advancing Translational Sciences (NCATS), 2024).
In all, about 46,000 compounds went through this assay and about 60 (0.1%) were called active. Roughly 3% stayed inconclusive and do not appear here. Calls come from the whole dose curve; as a rule, active = well fitted inhibition curve with a large enough effect; inconclusive = small, poorly fitted or top-dose-only effect; inactive = no such curve, though single readings can be large or run the other way. Some of the results follow.

Assay: Primary qHTS assay for Inhibitors of ovarian cancer metastasis using an organotypic tumor microenvironment (TME) model.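 For activity change, negative = inhibition: plate controls were DMSO wells for no effect and tomatine positive control wells for full effect.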 Note: nearly all actives have a fitted effect of over 65% in size.
Conditions: SKOV3ip1-GFP adhesion/invasion on 3D omental model, fluorescence; series mostly up to 45.8 µM; activity change, negative = inhibition: at the top concentration
In short: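 Primary human omental fibroblast/mesothelial 3D culture pre-formed 48 h. SKOV3ip1-GFP cells added with compounds (0.36-46 umol/L), incubated 2 h RT/16 h 37 C, fixed; GFP cells quantified at 488/509 nm.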

| Compound | outcome | activity change, negative = inhibition |
| --- | --- | --- |
| CCOc1cc(Br)cc(C2NC(=O)c3c(sc4c3CCN(C)C4)N2)c1O (stereo unspecified) | inactive | – |
| COC(=O)c1ccccc1NC(=O)c1cnc(Nc2ccc(OC)cc2)c2ccccc12 | – | inactive: 33.2% |
| Cc1cccc(N2CCN(Cc3nnc(-c4ccccc4C)o3)CC2C)c1 (stereo unspecified) | – | inactive: 0.0792% |
| Cc1ccc(Cn2c(CNC(=O)CCc3ccccc3)nc3cccnc32)cc1 | – | inactive: -4.19% |
| CCCOc1ccc(C(=O)N(Cc2ccccc2Cl)C2CCS(=O)(=O)C2)cc1 (stereo unspecified) | – | inactive: -6.97% |
| COc1ccc(C2=Nc3ccc(F)cc3NC(c3cccc(C(F)(F)F)c3)=N2)cc1 | – | inactive: 4.78% |
| CCc1ccc2ncc(C(=O)c3ccc(C)c(C)c3)c(N3CCC(C(N)=O)CC3)c2c1 | inactive | – |
| COc1cc2nc(-c3ccc(N4CCN(C)CC4)cc3)nc(NCCN3CCOCC3)c2cc1OC | – | inactive: 1% |
| Cc1cc(-c2nc3ncccc3o2)ccc1NC(=O)c1ccccc1Br | inactive | – |
| O=C(Cn1cnc(S(=O)(=O)N2CCCC2)c1)Nc1cccc(Br)c1 | inactive | – |
| CCCCOc1cccc(C(=O)N(Cc2ccc(N(C)C)cc2)C2CCS(=O)(=O)C2)c1 (stereo unspecified) | – | inactive: -4.52% |
| CC(=O)N1c2ccc(S(=O)(=O)N3CCCCCC3)cc2CC1C(=O)NCc1ccccc1C (stereo unspecified) | inactive | – |
| COc1ccc(CCNC(=O)Cn2c(=O)n(-c3ccccc3)c(=O)c3c(C)c(C)sc32)cc1OC | – | inactive: -6.01% |
| O=C(COc1ccc(F)cc1)NCC(c1ccc(Cl)cc1)N1CCCCC1 (stereo unspecified) | – | inactive: -22.5% |
| Cc1ccc(CCNC(=O)CCCn2c(=O)c3ccccc3n(Cc3ccccc3C)c2=O)cc1 | – | inactive: -23.2% |
| O=C(NC1CCCc2ccccc21)c1ccc2c(c1)sc1nc(-c3ccccc3)cn12 (stereo unspecified) | – | inactive: 0.525% |
| O=C(Cn1c(=O)n(Cc2ccccc2)c(=O)c2sc3ccccc3c21)Nc1ccccc1F | inactive | – |
| O=C(Nc1ccc2c(c1)CCCN2C(=O)c1cccs1)c1ccccc1 | – | inactive: -6.77% |
| CC(C)C1N=C2c3ccccc3N=C(SCC(=O)NCc3ccc(Cl)cc3)N2C1=O (stereo unspecified) | – | inactive: -2.37% |
| COc1ccccc1CNC(=O)CCCN1C(=O)CSc2c1c(C)nn2-c1ccccc1 | inactive | – |
| COc1ccc(-n2nc(C(=O)N3CCN(c4ccccc4OC)CC3)c3c4ccccc4n(C)c3c2=O)cc1Cl | inactive | – |

| Compound | outcome | activity change, negative = inhibition |
| --- | --- | --- |
| CC(=O)N1CCOc2cc(S(=O)(=O)NCc3ccc(F)cc3)c(C)cc21 | – | inactive: 4.37% |
| CCCS(=O)(=O)c1nc(S(=O)(=O)c2ccc(C)cc2)c(NCc2ccccc2Cl)s1 | – | inactive: 21.7% |
| Cc1nc(N2CCCC2)c2c(C(=O)Nc3cccc(Cl)c3)c(C)oc2n1 | – | inactive: -9.51% |
| Cc1cc(C)cc(NC(=O)Nc2ccc3nc(N4CCN(C)CC4)cc(C)c3c2)c1 | – | inactive: 4.48% |
| COc1cc(F)c(F)c(Nc2ccc(I)cc2F)c1NS(=O)(=O)C1(C[C@H](O)CO)CC1 | – | inactive: -7.21% |
| CCOc1ccc(NC(=O)Cn2ccn3nc(-c4ccc(OC)c(OC)c4)cc3c2=O)cc1 | – | inactive: -2.87% |
| CC(CNC(=O)CCc1cn(Cc2ccccc2Cl)c2ccccc12)c1ccccc1 (stereo unspecified) | – | inactive: -5.39% |
| CCOc1ccccc1NC(=O)C1CCN(S(=O)(=O)c2cccs2)CC1 | – | inactive: -7.9% |
| Cc1c(C(=O)NCc2cccc(Cl)c2)sc2nc[nH]c(=O)c12 | – | inactive: 6.03% |
| COc1cccc(Oc2nc(C)nc3c2oc2ccccc23)c1 | – | inactive: -10.6% |
| Cc1ccsc1CN(C(=O)c1ccc(OCC(C)C)cc1)C1CCS(=O)(=O)C1 (stereo unspecified) | – | inactive: -3.37% |
| CCc1ccc(NC(=O)c2ccc(F)c(S(=O)(=O)N3CCN(c4ccc(OC)cc4)CC3)c2)cc1 | – | inactive: -4.36% |
| COc1ccc(NC(=O)Cn2cc(C(=O)c3ccccc3)c(=O)c3cc(OC)ccc32)c(OC)c1 | – | inactive: 12.6% |
| O=C(O)CCC(=O)Nc1sc2c(c1C(=O)Nc1ccccc1)CCCCC2 | – | inactive: -6.42% |
| CC1(C)CC(=O)c2cc(C#N)c(=O)n(-c3ccc(Cl)cc3)c2C1 | – | inactive: 25.1% |
| CCOC(=O)c1c(S(=O)(=O)N2CCCC(C(=O)Nc3ccc(C)cn3)C2)c(C)n(C)c1C (stereo unspecified) | – | inactive: -5.93% |
| Cc1ccc(-n2c3nc(=O)[nH]c(=O)c-3cc3c(C)nn(-c4ccccc4)c32)cc1C | inactive | – |
| Cc1ccc(Sc2c(C)nn(C(=O)c3ccc(Cl)cc3)c2C)cc1 | – | inactive: -15.4% |
| Cc1c(C(=O)OC(C)C)sc(NC(=O)C2c3ccccc3Oc3ccccc32)c1C(=O)OC(C)C | – | inactive: -0.347% |
| CCOC(=O)c1cccc(NS(=O)(=O)c2cc(-c3cnc(C4CC4)o3)ccc2C)c1 | inactive | – |
| Cc1ccc2oc(-c3cccc(NC(=O)Cc4ccc(Cl)cc4)c3)nc2c1 | inactive | – |

| Compound | outcome | activity change, negative = inhibition |
| --- | --- | --- |
| CCOC(=O)c1c(-c2ccc(OC)cc2)oc2ccc(OCc3ccc(Br)cc3)cc12 | inactive | – |
| CCc1cnc2c(c1SCC(=O)c1ccc(Cl)cc1)c(=O)n(C)c(=O)n2C | – | inactive: 4.45% |
| COc1ccc(Cn2c(=O)c3cccnc3n(CC(=O)Nc3c(C)cc(C)cc3C)c2=O)cc1 | – | inactive: 0.677% |
| CCSc1nnc(NC(=O)c2cc(=O)c3cc(C)c(C)cc3o2)s1 | – | inactive: 7.45% |
| CC(=O)c1ccc(N2CCN(C(=O)CCCCn3c(=O)[nH]c4ccsc4c3=O)CC2)cc1 | inactive | – |
| CCOc1ccc(CNS(=O)(=O)c2cc3c(cc2C)NC(=O)CO3)cc1 | – | inactive: 0.292% |
| Cc1cccc(NC(=O)CSc2nc3ccccc3nc2N2CCOCC2)c1C | – | inactive: 1.25% |
| COc1cc(OC)cc(C(=O)N2CC(=O)Nc3ccc(Cl)cc3C2c2ccccc2)c1 (stereo unspecified) | – | inactive: -3.01% |
| CC(C)CCNC(=O)CCC(=O)NNc1nc2ccccc2c2nc(-c3ccccc3)nn12 | – | inactive: 14.2% |
| O=C(Nc1nnc2n1CCS2)c1ccccc1C(F)(F)F | – | inactive: -8.36% |
| Cc1ccc(N(CC(=O)Nc2ccc(Br)cc2)S(=O)(=O)c2cccs2)cc1 | inactive | – |
| COc1ccc(S(=O)(=O)n2nc(C)c(S(=O)(=O)N3CCC(C)CC3)c2C)cc1OC | inactive | – |
| O=C(NCCc1ccc(F)cc1)C(=O)NCC(c1ccco1)S(=O)(=O)c1cccs1 (stereo unspecified) | inactive | – |
| COc1cccc(C(=O)NCC(c2ccc3c(c2)OCO3)N2CCOCC2)c1 (stereo unspecified) | – | inactive: -2.48% |
| CCOc1ccc(NC(=O)C(=O)NCc2ccco2)cc1 | – | inactive: -5.7% |
| Brc1cccc(-c2cnn3c(-c4ccccc4)cc(-c4ccccc4)nc23)c1 | – | inactive: -8.45% |
| O=C(Nc1ccc(Cl)c(C(F)(F)F)c1)C(Cc1ccccc1)NS(=O)(=O)c1ccc(Br)s1 (stereo unspecified) | – | inactive: 9.37% |
| COc1ccc(C2=C(C)C(N3CCC(C(=O)Nc4ccc(F)cc4C)CC3)=NS2(=O)=O)cc1 | – | inactive: -8.28% |
| COc1ccc2cc3cc(C(=O)NCc4ccccc4OC)oc3nc2c1 | – | inactive: 10.8% |
